# In the supplement of paper PMC4466236:
# The full ranking holds about 33,000 sequences; the median of “E-score (dimensionless, -0.5 to 0.5)” is about -0.058, and the highest 2% start at about 0.35. This is one part of the list.
# Test system: MvaT
# Assay: PBM 8-mer E-score (mean of HK and ME arrays) (E-score (dimensionless, -0.5 to 0.5)); higher = stronger relative binding preference; most listed sequences are background and not binding sites
# Outline: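 Reported values are rank-based E-scores, taken as the mean of two universal arrays and parsed with a custom script. Each 8-mer score falls between -0.5 and 0.5. The arrays, ME and HK, were double-stranded 60-mers with a constant 25-mer primer region and a variable 35-mer region covering all 8-mers. They were probed, by an earlier protocol, with full-length P. aeruginosa MvaT carrying an N-terminal glutathione S-transferase fusion.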
row,Sequence,PBM 8-mer E-score
1,AATTGACT,0.0728
2,CCTTATTA,0.292
3,AAGGCATT,-0.0145
4,GACGACGC,-0.249
5,CGTGTCAC,-0.138
6,ATCGGCCA,-0.173
7,ACCAGCCA,-0.103
8,CACGTACC,-0.255
9,ATACGTCA,0.0584
10,ATGTTCTA,0.0957
11,AAACTTGC,0.232
12,ACCTCCCA,-0.226
13,AGCGGTCG,-0.314
14,CCCTAGCC,-0.272
15,CTTTAGGC,-0.0888
16,ACGTACAA,0.158
17,CGTGGCAC,-0.252
18,CAGAGTCC,-0.202
19,CCCAGCTC,-0.188
20,GAATCCTC,-0.262
21,ATGACGCA,-0.0923
22,CTCAACGA,-0.126

row,Sequence,PBM 8-mer E-score
1,ATGGGAGG,-0.307
2,GCCCGGCA,-0.203
3,AAATGGCT,-0.139
4,ATTCAATG,0.0138
5,AAGGTTAC,-0.0966
6,GCTTTCCC,-0.305
7,CTTGTACC,-0.189
8,CGGGTGTA,-0.173
9,TACAGCGA,0.0102
10,TGCATGCA,0.00935
11,AGCTCGTA,-0.104
12,ATCGTCTC,0.0114
13,ACTACTAC,0.138
14,ATGACCCC,-0.19
15,AGAAATGA,0.0234
16,TACCAGAA,0.096
17,CGTTCGAC,-0.16
18,ACCGACTC,-0.12
19,TAAAATGA,0.263
20,CCAGTGGC,-0.339
21,CTATTACC,0.165
22,ACGGGTAC,-0.0995

row,Sequence,PBM 8-mer E-score
1,GGGCTGAC,-0.203
2,AAGTAGAG,0.0241
3,AGCTTCTA,-0.0129
4,AATAAGTG,0.254
5,ACACATCT,0.0482
6,CCCACTAA,0.0832
7,AAGGTCGG,-0.224
8,AAAAAATC,-0.0155
9,CAGTGATG,0.0336
10,ACCTTCTC,-0.216
11,ACCTGCCG,-0.216
12,GGGGGGAC,-0.279
13,CCGCTGAG,-0.214
14,ACTTGGAC,0.0426
15,AGACATAG,0.00833
16,TCAATGAA,0.00438
17,ATTGCGCC,-0.229
18,AGCGGCTA,-0.173
19,CAGTCAAG,-0.06
20,GGATCCCA,-0.105
21,GCACCTAC,-0.156
22,TAGACCAA,0.0302

row,Sequence,PBM 8-mer E-score
1,AGAACACA,0.0376
2,AGGTTAGC,-0.318
3,CTATGTGA,-0.00371
4,CGAACATA,0.0561
5,CCAGCCAA,-0.118
6,AGCTCACT,-0.199
7,CTTAACGA,-0.023
8,CGTGTTGA,-0.144
9,AGCTATCG,-0.157
10,AGTTCGTG,-0.0553
11,CGTTGCTA,-0.019
12,ACTACATG,0.152
13,ATTTCATA,0.25
14,CGCGGCAA,0.00899
15,GTACTTGA,0.1
16,CCTCGTAG,-0.0333
17,ACAAAGAG,-0.0186
18,CAGTCGGC,-0.196
19,CGGATACG,-0.136
20,ATCTACGG,-0.115
